# Hit rate of the full screen: of about 110,000 compounds, about 230 (0.21%) showed an effect of 50% or more. The list shows a part of the results.
# Biological target: DPAP1 (Plasmodium falciparum, UniProt Q8IIJ9)
# Test: primary screen, percent inhibition; read by cleavage of a fluorogenic dipeptide substrate; higher = more effect of the substance
# Design: species or system P. falciparum D10 trophozoite lysates; single well
# 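Also: 30 min substrate incubation versus DMSO and 10 µM JCP410 controls.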
# Sequence of DPAP1 (Q8IIJ9 whole entry, looked up): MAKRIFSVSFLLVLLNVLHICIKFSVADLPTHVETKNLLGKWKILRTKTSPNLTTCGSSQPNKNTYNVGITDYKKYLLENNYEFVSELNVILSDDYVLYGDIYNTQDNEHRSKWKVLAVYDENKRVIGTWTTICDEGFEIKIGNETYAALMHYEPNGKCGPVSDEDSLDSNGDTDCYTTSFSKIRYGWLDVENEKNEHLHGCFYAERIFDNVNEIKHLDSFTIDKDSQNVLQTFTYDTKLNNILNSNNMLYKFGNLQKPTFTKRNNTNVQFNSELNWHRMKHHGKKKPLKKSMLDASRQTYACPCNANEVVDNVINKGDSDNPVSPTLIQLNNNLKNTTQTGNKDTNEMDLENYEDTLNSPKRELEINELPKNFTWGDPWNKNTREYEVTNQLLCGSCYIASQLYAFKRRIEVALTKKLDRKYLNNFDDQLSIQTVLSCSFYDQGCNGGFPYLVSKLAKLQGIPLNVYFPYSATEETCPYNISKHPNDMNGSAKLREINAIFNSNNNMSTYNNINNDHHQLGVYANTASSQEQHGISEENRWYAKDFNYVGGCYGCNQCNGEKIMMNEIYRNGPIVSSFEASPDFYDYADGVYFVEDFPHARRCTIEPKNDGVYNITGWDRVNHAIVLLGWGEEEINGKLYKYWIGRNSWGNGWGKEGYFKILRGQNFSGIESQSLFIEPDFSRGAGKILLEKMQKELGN
row,Compound,% Inhibition @ 10 uM
1,COc1ccc(NC(=O)CCc2cc(OC)c(OC)c(OC)c2)cn1,1.88%
2,COC(=O)CCCNS(=O)(=O)c1ccc([N+](=O)[O-])cc1,-5.33%
3,O=C(NC1CCCC1)C(c1ccc(Cl)cc1)N1CCN(C2CCCCC2)CC1 (stereo not drawn),-3.01%
4,COc1ccc(-c2cn3nc(C)c(C)nc3n2)cc1,2.49%
5,CCCOc1ccc(-c2csc3ncn(CCC(C)C)c(=O)c23)cc1,-10.4%
6,N#C/C(=C\c1coc2ccccc2c1=O)C(=O)NCc1ccco1,-2.19%
7,c1coc(CNC2C3CC4CC(C3)CC2C4)c1 (stereo not drawn),-5.59%
8,CCOC(=O)N1CCN(C(=O)C2c3cc(OC)c(OC)cc3C(=O)N(C)C2c2ccccc2F)CC1 (stereo not drawn),1.07%
9,COc1ccccc1CNC(=O)C1CCN(S(=O)(=O)N2CCOCC2)CC1,2.05%
10,COc1ccccc1NC1=C(Cl)C(=O)N(c2cccc(C)c2)C1=O,-3.63%
11,CC(C)NC(=O)c1cc2c(=O)n3ccccc3nc2n1C,-1.6%
12,O=S(=O)(Nc1ccc(Br)cc1)c1ccc(F)cc1,1.91%
13,Cc1ccc(CSC2=C(C#N)C(c3ccccc3)CC(=O)N2)cc1 (stereo not drawn),-6.51%
14,CCOc1ccc(S(=O)(=O)N(C)Cc2cnn(CC)c2C)cc1,2.08%
15,CCOC(=O)N1CCN(C(=O)c2nn(C)c3c2CS(=O)(=O)c2ccccc2-3)CC1,2.62%
16,CCOC(=O)c1c(C)[nH]c(C)c1S(=O)(=O)N1CCc2ccccc2C1,-3.26%
17,Cc1cccc(CNCc2ccccc2)c1,-8.9%
18,COc1ccc(C(C)NC(=O)c2ccc(OCC(C)C)cc2)cc1 (stereo not drawn),16.4%
19,COCCNC(=O)C1CCN(c2cc(C)nc3c(-c4ccc(Cl)cc4)c(C)nn23)CC1,-1.89%
20,COc1ccc(S(=O)(=O)N(CC(=O)Nc2cccc(C(C)=O)c2)c2cccc(Cl)c2)cc1,2.86%
21,O=C1C2C3C=CC(C2C(=O)N1c1ccccc1F)C1C(=O)N(c2ccccc2F)C(=O)C31 (stereo not drawn),3.1%
22,O=C(NC12CC3CC(CC(C3)C1)C2)OCc1ccccc1,1.87%
23,CCCNC(=O)c1cc(-c2ccccc2OCC)nc2ccccc12,3.17%
24,O=C1CC(c2cccs2)Cc2nc(NCCSc3ccc(Cl)cc3)ncc21 (stereo not drawn),1.74%

row,Compound,% Inhibition @ 10 uM
1,COc1cc(C2C(C#N)=C(N)Oc3[nH]nc(C)c32)cc(OC)c1OC (stereo not drawn),-0.759%
2,CCCCN1C(=O)C(NC(=O)C2CC2)(C(F)(F)F)C2=C1CC(C)(C)CC2=O (stereo not drawn),-1.12%
3,COC(=O)c1ccc(C2c3c(-c4ccccc4O)n[nH]c3C(=O)N2Cc2ccc(OC)cc2)cc1 (stereo not drawn),3.27%
4,CCOC(=O)N1CCC(NCCc2cccc(F)c2)CC1,-3.6%
5,CC(C)Cn1cc(C(=O)N2CCOCC2)c2c3ccccc3n(C)c2c1=O,-3.12%
6,Cc1cc(N2CCOCC2)n2ncnc2n1,-2.79%
7,CC(=O)C1=C(O)C(=O)N(CCN2CCOCC2)C1c1ccc(C(C)C)cc1 (stereo not drawn),-3.34%
8,CCOC(=O)c1c2c(n(C)c1C)C(=O)C(=O)c1ccc(Br)cc1-2,-1.26%
9,CCC1CCCCN1S(=O)(=O)c1ccc(F)cc1 (stereo not drawn),-3.04%
10,O=C(NCC1CCCO1)C1CCCN(S(=O)(=O)c2ccc3[nH]c(-c4ccccc4)nc3c2)C1 (stereo not drawn),3.08%
11,COCCNC(=O)C1CCN(c2nnc(C)c3c(C)n(-c4ccc(Cl)cc4)nc23)CC1,1.91%
12,O=C(O)Cn1c(SCCOc2ccc(Cl)cc2)nc2ccccc21,-5.31%
13,O=C(Nc1nc2ccccc2s1)c1cncc(Br)c1,2.02%
14,Cc1ccc(C/N=c2/c(-c3ccc(Cl)cc3)c(O)c2=O)o1,-2.92%
15,O=C(CN1C(=O)c2cccc3cccc1c23)Nc1ccc(S(=O)(=O)Nc2ccc(F)cc2)cc1,-2.03%
16,CCOc1ccc(S(=O)(=O)NCC2CCCO2)c2cccnc12 (stereo not drawn),3.54%
17,O=S(=O)(NCC1CCCO1)c1ccc(-n2cccn2)cc1 (stereo not drawn),-1.08%
18,CCN(Cc1ccccc1)S(=O)(=O)c1cc2nc(O)c(O)nc2cc1C,-0.401%
19,COc1cc(-c2nc(O)c3c(n2)Oc2ccc(C)cc2C3)cc(OC)c1OC,3.92%
20,Cc1ccc(-c2noc(CN(C(=O)C(C)(C)Oc3ccc(Cl)cc3)C(C)C)n2)cc1,-1.54%
21,O=C(Nc1scc(-c2ccccc2)c1C(=O)O)c1ccccc1,-1.37%
22,CCOCCCNC(=O)c1cnn2c(C)c(Cc3cc(C)ccc3C)c(C)nc12,2.9%
23,Cc1cc(NC(=O)CSc2nc3nncc-3c(O)n2-c2ccccc2C)[nH]n1,-3.21%
24,Cc1sc(NC(=O)C2CCCCC2)c(C#N)c1C,2.38%
